Test results published in the RNAGym collection of RNA variant scans (doi:10.7554/elife.90254).
The source gives no read counts; variants with many changes may rest on few reads.

B1: LINE1-mini (parent)
chain: GGCAGAGCUCAACACAGCGUGGCAAAGUGGCUGUGGCUAGACUGCC

Variants of: B1
Experiment: self-cleavage, relative activity (ratio to wild type); higher = more cleavage; in vitro, sequencing; the parent is a self-cleaving ribozyme

Variant	self-cleavage
A14G U32G G36A A39G U43C	0.01
A14G G17U G44A	0.05
A14G G19A G22U C31A G35U	0.22
A14G G29A G36A C42U	0.36
A14G C15U G17U G29C G35A G44A	0.04
A14G A16G G17C C18U G19A A26G U28C G40U	0.01
A14G A26U G30U C31A	0.19
A14G C18U G27U U32C C37A G40U	0.01
A14G G29U U43A	0.24
A14G C23A A25C G30C U32A C45A	0.02
A14C U28G A39C	0.27
A14G U28G G35A	0.12
A14G G29U G30U G40A	0.08
A14G C23A G30U	0.28
A14G C31G C42A	0
A14G G30C G35A C42A	0.01
A14G G22U C37U	0.04
A14G G35C C37U	0.02
A14G C15G U28A G33U	0.07
A14G G21U U28G U38A	0.12
A14G G27C G33U	0.05
A14G G22U U28A U32G	0.05
A14G G29A A39U A41U	1.07
A14C U20G U38G C42U	0.05

Variant	self-cleavage
A14G G17C G29U	0.09
A14G U34G U38G	0.02
A14G U20A G21C G40C U43A	0
A14G G35U C42A	0
A14G U28C C31G C42U	0.16
A14G C15A G22C	0.21
A14G G29A C45A	0.04
A14G C15A U20G G22C A24C C46A	0.02
A14G G33A A39U G40U	0.03
A14G C23G U28C C45A	0.15
A14G C18U G33A C42A	0.06
A14G G19A U20A G22A C45A	0.3
A14G G27C U32A G35C	0.03
A14G C23A U32C C42A	0.04
A14G G22C U43C	0.1
A14G A26C C37A	0.01
A14G G17U U38A	0.04
A14G C23G C45U	0.62
A14G C18A C23A A25U G44C	0.13
A14G G33A A39U	0.09
A14G C15U G17A A24C G35A G44C C46U	0.02
A14G G21A G22U U32A	0.02
A14G G19U A26C	0.38
A14G A16G G19A	0.46

Variant	self-cleavage
A14G C15G G27U	0.19
A14G G29U G30U G36A	0.04
A14G A25G A26U U43C	0.01
A14G C18G G33U	0.06
A14G A16C G17U	0.05
A14G G19A C31A	0.13
A14G G17C G22A G29C U34C C37U	0.01
A14G A26U G40C C46U	0
A14C U38C G40A	0.06
A14G A26U G30A G33A	0.08
A14G C31G G33A U34C	0.03
A14G A26U G29A	0.09
A14C U32G C42A	0.03
A14G G17U G21U G22A U28A C31U	0.03
A14G G17A G27A C42A	0.06
A14G G22U U34C	0.83
A14G G29U C31G G33C	0.03
A14G C15U C42U C46G	0.02
A14G G22U A26C G44A	0.06
A14G C15G G17A C23U	0.08
A14G C23A G29U	0.27
A14G G35U G44U	0.13
A14G G21C A24U	1.18
A14G G36A G40C	0.01

Variant	self-cleavage
A14G A26U C31A	0.01
A14G G22A G29A G33U	0.07
A14C U38C G44U	0.09
A14G G19A C46A	0.39
A14G A16C G40C A41U G44A	0.01
A14G G36U G40A G44U	0
A14G G35U C45A	0.36
A14G C18G G33A A39G A41U	0.02
A14G G17U A41U C42U	0.12
A14G C23A G36A A41U C45A	0.12
A14G C15G G19A	0.04
A14G C15A A26C G33C U34G	0.04
A14G G19C U32G	0.06
A14C U43C G44U	0
A14G G17U G35A G36U	0.05
A14G G19A G22A A24C G27U G30U G44U	0.07
A14G G44A C45A	0
A14G G40U C42A	0.01
A14G U20G G22C A39U	0.02
A14G G40C A41C	0.03
A14G G17U U32G G33A C45A	0.04
A14G C18A U32C	0.05
A14G G30C G40A	0.5
A14C U38G U43C	0

Variant	self-cleavage
A14G C15A C45G	0.02
A14G A24U C45A	0.09
A14G A26C U28C U34A C42U	0
A14G G27A G35C	0.01
A14G G17A C23G U32A	0.03
A14G C23U C37G C46A	0.01
A14G U32G G33C A39G G44A C45A	0.03
A14G G21U G22U G33U	0.09
A14G A25C G27U G36C	0.03
A14G G21U A26C	0.19
A14G C15U A16U G19U G40A	0.02
A14G A24U C37A	0.05
A14G C18U U28C	0.62
A14G C15G G35U	0.02
A14G G19C A24U C31U	0.07
A14G A25U G27U G40C	0.12
A14G C15G G36U	0.01
A14G C23U U34C	1.46
A14G A16U G17C U32C G44C	0.1
A14C U28A U32G G44A	0.09
A14G G21C G40U A41G	0.02
A14G U20G C42G C45A	0.08
A14G U32G G33U C45U	0
A14G G19U G30A G44U	0.05

Variant	self-cleavage
A14G A16G U32A G40A	0.01
A14C U38G G40C C42U	0.05
A14G U34C G36C C42U G44U	0.14
A14G U20C A24C A25U C45G	0.11
A14G C18G U43C	0.04
A14G U20C A25G	0.22
A14G G27A U34G C46U	0.26
A14C U38A C46U	0
A14G A16U A26U U38C G40C	0
A14G C15G G27C G35A	0.01
A14G G29A G33U G36U U38A	0.03
A14G C37G U38G	0.01
A14G A16C G33U	0.01
A14G U20C G21A G27A G29U	0.04
A14G C15G C37U U38C A41C C45U	0.01
A14G A16G G17U G36U	0.02
A14G A16U G22C C46A	0.03
A14G G27A C46A	0.41
A14C U34C C45G	0.05
A14G G17A C31U	0.13
A14G G17U G35C	0.02
A14G C23A G35C G44U	0.06
A14G A16U G19A A25C A39C	0
A14G G17U C18A	0.12

Variant	self-cleavage
A14G G35C C42U	0.02
A14G G19A A41U	0.32
A14G G29U U32C	0.03
A14G U20G G35U	0.07
A14G A16U G21A G22U	0.01
A14G G30C G36A	0.05
A14G G33A C45G	0
A14G G33U G40C	0
A14G A26U C31A C42U	0.03
A14G G29A U32G G36A	0.02
A14G A26G C46A	0.24
A14C U34A A41U	0.07
A14G U28C C37A	0.06
A14G G29A U38C	0.23
A14G A41C U43G	0.29
A14G A41C U43C	0.05
A14G G21U G27C U34A C42A	0.02
A14G U28A U34A G44U	0.02
A14G G19U U20A	2.27
A14G G21U G22A	0.58
A14G G29U G30A U34C C45A	0.05
A14G C15A U38G	0.1
A14G C18G U20G	0.02
